# Test results from PubChem BioAssay AID485344 (National Center for Advancing Translational Sciences (NCATS), 2010).
# Screen size: about 340,000 compounds; about 6,900 (2%) were called active. Rule as the data show it: active = inhibition above about 30%; inactive = below that, where a call was filed. Only a part is listed here, and it is no random draw. Entries without a call were filed so in the source.
# Target: D(2) dopamine receptor (Homo sapiens) (UniProt P14416)
# Experiment: HTS Assay for Allosteric Antagonists of the Human D2 Dopamine Receptor: Primary Screen for Antagonists; also: 0% is about no effect
# Conditions: HEK293 TREx D2 cells, calcium flux, dopamine EC80; at 10 µM; stronger effect = higher value
# Procedure, shortened: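 Dopamine at EC80 is the agonist stimulus; test compounds precede it by 180 s. Calcium flux read kinetically in a force-coupled, inducible HEK293 T-REx D2 cell line.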
# Chain of UniProt P14416 (P14416 whole entry, looked up): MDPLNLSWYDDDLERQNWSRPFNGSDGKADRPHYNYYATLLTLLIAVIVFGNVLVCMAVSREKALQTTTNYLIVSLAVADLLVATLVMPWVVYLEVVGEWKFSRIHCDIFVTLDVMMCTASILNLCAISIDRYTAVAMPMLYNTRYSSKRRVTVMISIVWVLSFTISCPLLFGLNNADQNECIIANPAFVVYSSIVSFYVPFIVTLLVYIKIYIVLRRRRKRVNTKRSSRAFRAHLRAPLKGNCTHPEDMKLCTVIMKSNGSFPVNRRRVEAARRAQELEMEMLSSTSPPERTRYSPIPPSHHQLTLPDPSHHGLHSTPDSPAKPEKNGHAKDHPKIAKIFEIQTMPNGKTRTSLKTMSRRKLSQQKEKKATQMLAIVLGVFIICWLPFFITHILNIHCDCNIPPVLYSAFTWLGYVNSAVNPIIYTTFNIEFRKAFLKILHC
row,Compound,inhibition
1,COc1ccccc1N1CCN(C(CNC(=O)C(=O)NCCCN(C)C)c2cccnc2)CC1 (stereo unspecified),6.69%
2,COc1ccc(N(CC(=O)NCCc2cccc(C)c2)S(=O)(=O)c2c(C)nn(C)c2C)cc1,-3.89%
3,O=C1CC(c2ccccc2C(F)(F)F)c2c(c3ccccc3[nH]c2=O)O1 (stereo unspecified),-13.1%
4,Cc1ccc2nc(-c3ccc(O)cc3)c(Nc3ccc4c(c3)OCO4)n2c1,-19.6%
5,CCn1nnnc1NCc1ccc(Cl)cc1,active: 46.7%
6,CC(C)N(Cc1ccccc1)C(=O)CCS(=O)(=O)c1cc2c(cc1Cl)NC(=O)CO2,-1.61%
7,Cc1nn(C)c(C)c1S(=O)(=O)N1CCC(C(=O)NCCC2=CCCCC2)CC1,active: 30.3%
8,Cc1cc(C)n2nc(SCC(=O)Nc3ccccc3)nc2n1,6.47%
9,CCc1ccc(NC(=O)CSc2nc3n[nH]c(C)c3c(=N)n2-c2ccccc2C)cc1,20%
10,COc1cccc(C(=O)Nc2ccccc2OCc2cc(=O)n3cc(C)ccc3n2)c1,-7.92%
11,CCCNC(=O)C1CCN(S(=O)(=O)c2ccc3c(c2)CCCN3C(C)=O)CC1,-11.1%
12,Cc1oc(-c2ccc(Cl)cc2)nc1CS(=O)CC(=O)NCc1ccc(Cl)cc1 (stereo unspecified),-7.84%
13,CC1=C(C(N)=O)C(c2cccc(Br)c2)n2nc(SCc3ccccc3)nc2N1 (stereo unspecified),1.54%
14,O=C(Nc1cccc(C(=O)N2CCN(c3ccc(Cl)cc3)CC2)c1)c1nsc2ccccc12,5.11%
15,O=C(NCc1cccnc1)C1CCN(Cc2cc3ccccc3n2Cc2cccc(Cl)c2)CC1,12.5%
16,Cc1cc2nc(C3CCCN(C(=S)Nc4ccccc4)C3)[nH]c2cc1C (stereo unspecified),active: 31%
17,CCCCc1nnc(SCc2cc(=O)c3cc(C(=O)OCC)ccc3[nH]2)n1C,5.24%
18,O=C(CSc1cn(CCNC(=O)c2c(F)cccc2F)c2ccccc12)Nc1ccc2c(c1)OCCO2,-10.4%
19,CC(C)CC(NS(=O)(=O)c1ccc2c(c1)oc(=O)n2C)C(=O)NCCc1ccc(Cl)cc1 (stereo unspecified),-6.1%
20,Cc1cc(C)cc(NS(=O)(=O)c2ccc3[nH]cc(C(=O)N4CCCC4)c(=O)c3c2)c1,-1.92%
21,O=C(OCc1cc(=O)n2nc(C3CC3)sc2n1)c1ccc(F)cc1,15.6%

row,Compound,inhibition
1,CCOc1ccccc1NC(=O)Cn1cnc2onc(-c3ccc(F)cc3)c2c1=O,1.34%
2,COc1ccc(-n2c(=O)c3ccc(C(=O)NCc4ccc(C)cc4)cc3n(CC(=O)Nc3ccc(F)cc3)c2=O)cc1,-10%
3,CC(C)CC(=O)Nc1ccc(C(=O)OCc2cc(=O)n3nc(C(C)C)sc3n2)cc1,9.72%
4,COc1cccc(C(=O)Nc2cc(-c3ccccc3)no2)c1,14.3%
5,CCC1CCCCN1CCCNC(=O)CS(=O)Cc1nc(-c2ccc(OC)c(OC)c2)oc1C (stereo unspecified),active: 35.6%
6,COc1ccc(/C=C/c2nc(C#N)c(NCCc3ccc(OC)c(OC)c3)o2)cc1OC,-10.5%
7,COc1ccc(C(=O)N2CC(=O)Nc3ccc(F)cc3C2c2ccc(F)cc2)c(OC)c1 (stereo unspecified),2.79%
8,CCOC(=O)c1cc(C)n(CC2CCC(C(=O)Nc3ccc(Cl)cc3)CC2)c1C (stereo unspecified),2.6%
9,O=C(c1ccco1)N1CCN(Cc2ccccc2Br)CC1,active: 78.5%
10,CCC1CCc2nc3sc(C(=O)Nc4ccc(F)cc4F)c(N)c3cc2C1 (stereo unspecified),-4.87%
11,CC(=O)Nc1cccc(C(=O)NCc2ccc3c(c2)CCN3C(=O)c2ccccc2)c1,-11.3%
12,CCOc1ccc(CCNC(=O)Cn2nnc(-c3ccccc3)n2)cc1OCC,18.2%
13,Cc1ccc2cccc(NC(=O)c3ccc(-c4cccc([N+](=O)[O-])c4)o3)c2n1,-20.5%
14,COc1cc(OC)c(NC(=O)NC(C)c2c(-n3cccc3)sc(C)c2C)cc1Cl (stereo unspecified),19.3%
15,CCCCNC(=O)CSc1nc2nc(C)c(Cc3ccccc3C)c(C)n2n1,-3.22%
16,CCOc1ccc(NS(=O)(=O)c2cc(Br)cc3c2N(C(=O)C2CC2)CC3)cc1,-8.12%
17,COC(C[C@H]1O[C@@H]1[C@@H](O)[C@H](C)OCc1ccccc1)OC,active: 35.9%
18,Cc1ccccc1-c1nc(CS(=O)(=O)CC(=O)N2CCN(c3ccccc3)CC2)c(C)o1,27%
19,COc1ccccc1N1CCN(CCC(=O)Nc2cccc(Cl)c2)CC1,active: 96.2%
20,CCCCNC(=O)CCn1c(=O)c2ccccc2n(Cc2ccccc2C#N)c1=O,9.36%
21,S=C1SCN(Cc2ccccn2)CN1Cc1ccco1,active: 36.1%

row,Compound,inhibition
1,CCOc1ccc(CC(=O)Nc2c(C(=O)c3ccc(C)cc3)oc3ccccc23)cc1OCC,-19.3%
2,CCc1ccccc1NC(=O)c1ccc2nc(CCc3ccccc3)oc2c1,-13.4%
3,Cc1ccc(C(=O)COC(=O)C(CC(C)C)NC(=O)C2CCC(C)CC2)cc1 (stereo unspecified),-13.3%
4,O=C(CCCN1Cc2ccccc2C1)c1ccc(F)cc1,active: 79.5%
5,O=C(Cc1cccc([N+](=O)[O-])c1)NCc1nc2cccnc2n1Cc1ccc(F)cc1,-3.81%
6,CC(=O)c1cccc(NC(=O)C2CCCN(c3nnc(-n4cccc4)s3)C2)c1 (stereo unspecified),13.1%
7,COc1cc(C2N=C(N)Nc3nc4ccccc4n32)ccc1OCCC(C)C (stereo unspecified),12.8%
8,O=C(COc1ccc(S(=O)(=O)NC2CCCCC2)cc1)Nc1ccc(C(F)(F)F)cc1,7.78%
9,Cc1ccc[n+](CC(=O)Nc2cccc([N+](=O)[O-])c2)c1,active: 31.6%
10,CCOc1cccc(CC(=O)N2CCc3c([nH]c4ccccc34)C2c2ccc(F)cc2)c1OCC (stereo unspecified),6.22%
11,CCOc1ccc(N(CC)S(=O)(=O)N2CCCC(C(=O)NCc3ccccc3Cl)C2)cc1 (stereo unspecified),-12.5%
12,O=S(=O)(c1ccccc1)n1nc(-c2ccccc2)nc1NCc1ccc(Cl)cc1,8.12%
13,Cc1ccc(CNC(=O)CSCc2ccc(F)cc2)cc1,4.7%
14,CC(=O)Nc1ccc(NC(=O)CCNS(=O)(=O)c2cccc3nsnc23)cc1,2.32%
15,CCc1ccc2oc(-c3cccc(NC(=O)c4ccc(N5CCC(C)CC5)c([N+](=O)[O-])c4)c3)nc2c1,-14.2%
16,Cc1ccccc1CNC(=O)Cn1ncn2nc(-c3cccs3)cc2c1=O,5.55%
17,CCOc1ccccc1CNC(=O)c1cc2cc(S(=O)(=O)N3CCCCC3)ccc2n1C,3.3%
18,COc1cccc(NC(=O)Cn2cc(S(=O)(=O)N3CCCC3)c(S(=O)(=O)N3CCCC3)c2)c1,2.5%
19,Cc1cccc(CSc2cn(CC(=O)N3CCCC3)c3ccccc23)c1,-17.6%
